These results are taken from US20110008345A1 (GlaxoSmithKline, published 2011).

What is called Kd is a measure of binding affinity in units of concentration.

Assay [1] addresses T1, recombinant E. coli-expressed human IL-13 (human, UniProt P35225 fragment).
T1 construct: made and purified at GSK; also called Interleukin-13; rhIL-13
Description: SPR. (In SPR one partner is held on a chip, and binding of the other changes the refractive index at the surface.)

Assay [2] concerns the target T2, recombinant E. coli-expressed human IL-4 (human, UniProt P05112 25-153).
T2 construct: made and purified at GSK; also called Interleukin-4; rhIL-4
T2 sequence: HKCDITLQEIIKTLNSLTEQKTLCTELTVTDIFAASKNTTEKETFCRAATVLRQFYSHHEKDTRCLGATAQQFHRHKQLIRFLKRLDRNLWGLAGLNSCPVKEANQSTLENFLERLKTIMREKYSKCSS
Description: SPR.

For assay [3], the target named is T3, recombinant Sf21-expressed human IL-5 (human, UniProt P05113 20-134). Description: SPR.
The target in assay [4] is T1, recombinant E. coli-expressed human …. Description: ELISA, supernatant. In general terms: In an ELISA, binding on a coated surface is turned into a signal by an enzyme label.
Assay [5] deals with T3, recombinant Sf21-expressed human IL-5. Description: ELISA, supernatant.
The target in another assay is T4, recombinant human IL-12 (human, UniProt P29459 23-219; P29460 23-328).
T4 sequence (looked up) 1: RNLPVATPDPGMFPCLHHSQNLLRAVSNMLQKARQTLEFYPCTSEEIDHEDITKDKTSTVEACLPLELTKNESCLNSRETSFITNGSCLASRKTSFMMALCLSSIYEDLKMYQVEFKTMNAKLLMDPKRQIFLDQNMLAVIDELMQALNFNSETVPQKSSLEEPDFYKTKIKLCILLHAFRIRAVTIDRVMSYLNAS
T4 sequence (looked up) 2: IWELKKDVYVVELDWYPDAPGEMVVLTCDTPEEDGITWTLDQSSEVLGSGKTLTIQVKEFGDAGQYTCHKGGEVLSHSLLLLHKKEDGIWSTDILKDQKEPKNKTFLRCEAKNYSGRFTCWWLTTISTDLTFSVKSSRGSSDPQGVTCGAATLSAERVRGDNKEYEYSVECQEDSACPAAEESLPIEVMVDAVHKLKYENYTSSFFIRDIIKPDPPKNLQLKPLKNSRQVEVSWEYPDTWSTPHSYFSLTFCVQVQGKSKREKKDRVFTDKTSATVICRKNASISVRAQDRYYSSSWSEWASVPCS
Description: ELISA, supernatant.

Assay [6] concerns the target T2, recombinant E. coli-expressed human IL-4. Nature of the assay: ELISA, supernatant.
In assay [7] the target is recombinant E. coli-expressed human IL-18 (human, UniProt Q14116 37-193). Nature of the assay: ELISA, supernatant.

B1: Mepo-210-474 (other)
heavy: QVTLRESGPALVKPTQTLTLTCTVSGFSLTSYSVHWVRQPPGKGLEWLGVIWASGGTDYNSALMSRLSISKDTSRNQVVLTMTNMDPVDTATYYCARDPPSSLLRLDYWGRGTLVTVSS[human IgG1 constant region omitted]GGGGSEVQLLESGGGLVQPGGSLRLSCAASGFTFRNFGMGWVRQAPGKGLEWVSWIISSGTETYYADSVKGRFTISRDNSKNTLYLQMNSLRAEDTAVYYCAKSLGRFDYWGQGTLVTVSS
light: DIVMTQSPDSLAVSLGERATINCKSSQSLLNSGNQKNYLAWYQQKPGQPPKLLIYGASTRESGVPDRFSGSGSGTDFTLTISSLQAEDVAVYYCQNVHSFPFTFGGGTKLEIKRTVAAPSVFIFPPSDEQLKSGTASVVCLLNNFYPREAKVQWKVDNALQSGNSQESVTEQDSKDSTYSLSSTLTLSKADYEKHKVYACEVTHQGLSSPVTKSFNRGECGGGGSGVQLLESGGGLVQPGGSLRLSCAASGFTFAWYDMGWVRQAPGKGLEWVSSIDWHGEVTYYADSVKGRFTISRDNSKNTLYLQMNSLRAEDTAVYYCATAEDEPGYDYWGQGTLVTVSS
notes: trispecific mAbdAb; also called trispecific anti-IL5 mAb-anti-IL4dAb-anti-IL13dAb
B1: the figures for the Kd in assay [1] and in assay [3] were 1.62 nM and 0.45 nM, respectively. The binding result in assay [2] is on record as “binds”.

B2: MepolizumabL-G4S-474 (bispecific antibody, human IgG1, kappa)
heavy: QVTLRESGPALVKPTQTLTLTCTVSGFSLTSYSVHWVRQPPGKGLEWLGVIWASGGTDYNSALMSRLSISKDTSRNQVVLTMTNMDPVDTATYYCARDPPSSLLRLDYWGRGTLVTVSS[human IgG1 constant region omitted]
light: DIVMTQSPDSLAVSLGERATINCKSSQSLLNSGNQKNYLAWYQQKPGQPPKLLIYGASTRESGVPDRFSGSGSGTDFTLTISSLQAEDVAVYYCQNVHSFPFTFGGGTKLEIKRTVAAPSVFIFPPSDEQLKSGTASVVCLLNNFYPREAKVQWKVDNALQSGNSQESVTEQDSKDSTYSLSSTLTLSKADYEKHKVYACEVTHQGLSSPVTKSFNRGECGGGGSGVQLLESGGGLVQPGGSLRLSCAASGFTFAWYDMGWVRQAPGKGLEWVSSIDWHGEVTYYADSVKGRFTISRDNSKNTLYLQMNSLRAEDTAVYYCATAEDEPGYDYWGQGTLVTVSS
notes: also called BPC1021; anti-IL5 mAb-anti-IL13dAb
B2: the binding result in assay [4] and in assay [5] was “binds” throughout.

B3: BPC1616 (other)
heavy: EVTLRESGPALVKPTQTLTLTCTFSGFSLSKSVMGVSWIRQPPGKALEWLAHIYWDDDKYYNPSLKSRLTISKDTSKNQVVLTMTNMDPVDTATYYCARRGIRSAMDYWGQGTTVTVSSASTKGPEVQLVQSGTEVKKPGESLKISCKGSGYTVTSYWIGWVRQMPGKGLEWMGFIYPGDSETRYSPTFQGQVTISADKSFNTAFLQWSSLKASDTAMYYCARVGSGWYPYTFDIWGQGTLVTVSS[human IgG1 constant region omitted]TVAAPSEVQLLESGGGLVQPGGSLRLSCAASGFTFRNFGMGWVRQAPGKGLEWVSWIISSGTETYYADSVKGRFTISRDNSKNTLYLQMNSLRAEDTAVYYCAKSLGRFDYWGQGTLVTVSS
light: DIVMTQSPDSLAVSLGERATINCKASQSVSNDVAWYQQKPGQPPKLLIYYASNRYTGVPDRFSGSGSGTDFTLTISSLQAEDVAVYYCQQDYNSPWTFGGGTKVEIKRTVAAPEIVMTQSPATLSVSPGERATLSCRASESASSNLAWYQQKPGQAPRLFIYTASTRATDIPARFSGSGSGTEFTLTISSLQSEDFAVYYCQQYNNWPSITFGQGTRLEIKRTVAAPSVFIFPPSDEQLKSGTASVVCLLNNFYPREAKVQWKVDNALQSGNSQESVTEQDSKDSTYSLSSTLTLSKADYEKHKVYACEVTHQGLSSPVTKSFNRGEC
notes: trispecific; also called IL-12/18 DVDH TVAAPS-210
B3: the binding result (with recombinant human IL-12; in assay [6]; in assay [7]) was “binds” throughout.
